Assay results published in a collection of fitness landscapes (doi:10.1016/j.celrep.2020.107928).
Whole data set: some 81,000 sequences, median “one-hybrid fitness for binding NBS DNA” near -0.1, cut for the highest 2% near 0.36. Some of the results follow.

B1: Caulobacter ParB omega fusion; a variant is named by its letters at X, in order, B8GW30 (parent)
chain: MESVVVGEPGMSEGRRGLGRGLSALLGEVDAAPAQAPGEQLGGSREAPIEILQRNPDQPRRTFREEDLEDLSNSIREKGVLQPILVRPSPDTAGEYQIVAGERAWRAAQRAGLKTVPIMVRELDDLAVLEIGIIENVQRADLNVLEEALSYKVLMEKFERTQENIAQTIGKSXSHVANXMRLLXLPDEVQSYLVSGELTAXHARAIAAAADPVALAKQIIEGGLSVRETEALARKAPNLSAGKSKGGRPPRVKDTDTQALESDLSSVLGLDVSIDHRGSTGTLTITYATLEQLDDLCNRLTRGI

Variants of: B1
Assay: one-hybrid fitness for binding NBS DNA (the Noc-binding site; scaled: cognate 1, non-cognate 0); higher = stronger binding
Conditions: with NBS DNA site
How it was run: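 Caulobacter ParB libraries with four specificity codons randomised were screened by bacterial one-hybrid selection in the E. coli USO strain, using a HIS3 reporter whose site lies 19 bp from the promoter. Selection ran for 48 hours at 37°C on M9 lacking histidine, with 0.1 mM IPTG and 5 mM 3-AT. Plasmids were Illumina-sequenced before and after selection, three replicate libraries were pooled, and variants with under 10 reads were dropped. Fitness is the log change in each variant's read ratio to wild type, rescaled against the cognate and non-cognate sites.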

Row | Variant | one-hybrid fitness for binding NBS DNA
1 | NTQL | ≤ 0.2
2 | WVLH | ≤ 0.2
3 | VGWR | ≤ 0.2
4 | DYPS | ≤ 0.2
5 | VVTP | ≤ 0.2
6 | YSRY | ≤ 0.2
7 | KLGS | ≤ 0.2
8 | ANTF | ≤ 0.2
9 | LCHS | ≤ 0.2
10 | QPMA | ≤ 0.2
11 | AVTG | ≤ 0.2
12 | SHCG | ≤ 0.2
13 | HQEC | ≤ 0.2
14 | PHAG | ≤ 0.2
15 | SYMS | ≤ 0.2
16 | TYLE | ≤ 0.2
17 | TYNF | ≤ 0.2
18 | NACC | ≤ 0.2
19 | TSSP | ≤ 0.2
20 | QQWV | ≤ 0.2
21 | ATQF | ≤ 0.2

Row | Variant | one-hybrid fitness for binding NBS DNA
22 | WQCG | ≤ 0.2
23 | ETRD | ≤ 0.2
24 | NDMF | ≤ 0.2
25 | FAFN | ≤ 0.2
26 | SHPY | ≤ 0.2
27 | FSQG | ≤ 0.2
28 | QKPW | ≤ 0.2
29 | HDCG | ≤ 0.2
30 | MLQS | ≤ 0.2
31 | AFFT | ≤ 0.2
32 | MTNC | ≤ 0.2
33 | DQAY | ≤ 0.2
34 | NLLL | ≤ 0.2
35 | ARTW | ≤ 0.2
36 | RPHA | ≤ 0.2
37 | CSPG | ≤ 0.2
38 | LLTR | ≤ 0.2
39 | QDPW | ≤ 0.2
40 | SLVG | ≤ 0.2
41 | QHKP | 0.255
42 | RSHT | 0.402

Row | Variant | one-hybrid fitness for binding NBS DNA
43 | PREG | ≤ 0.2
44 | NVAE | ≤ 0.2
45 | LAQM | ≤ 0.2
46 | HFFS | ≤ 0.2
47 | YFCG | ≤ 0.2
48 | PVMM | ≤ 0.2
49 | IRTA | ≤ 0.2
50 | PASW | ≤ 0.2
51 | HIVR | ≤ 0.2
52 | EQTC | ≤ 0.2
53 | CDHS | ≤ 0.2
54 | SPIE | ≤ 0.2
55 | DANC | ≤ 0.2
56 | LKVD | ≤ 0.2
57 | FVKE | ≤ 0.2
58 | LHEW | ≤ 0.2
59 | YRPL | ≤ 0.2
60 | NADL | ≤ 0.2
61 | RGIH | ≤ 0.2
62 | SYPV | ≤ 0.2
63 | QCSC | ≤ 0.2

Row | Variant | one-hybrid fitness for binding NBS DNA
64 | CDPT | ≤ 0.2
65 | YTNT | ≤ 0.2
66 | TRCS | ≤ 0.2
67 | RLVS | 0.224
68 | QMPY | ≤ 0.2
69 | IYRC | ≤ 0.2
70 | YLSF | ≤ 0.2
71 | VRYQ | ≤ 0.2
72 | QQDA | 0.25
73 | MRVN | ≤ 0.2
74 | GSAH | ≤ 0.2
75 | AWIT | ≤ 0.2
76 | PSIR | ≤ 0.2
77 | RMMM | ≤ 0.2
78 | QHGY | ≤ 0.2
79 | QAYF | ≤ 0.2
80 | WIES | ≤ 0.2
81 | EPTD | ≤ 0.2
82 | LEYC | ≤ 0.2
83 | PKCY | ≤ 0.2
84 | TYAG | ≤ 0.2
